Source: PubChem BioAssay AID1963576 (National Center for Advancing Translational Sciences (NCATS), 2024)
Out of some 46,000 compounds screened, about 60 (0.1%) were called active. Roughly 3% stayed inconclusive and do not appear here. The call rests on the fitted dose curve; in most records, active means well fitted inhibition curve with a large enough effect; inconclusive means small, poorly fitted or top-dose-only effect; inactive means no such curve, though single readings can be large or run the other way. This is one part of the list.

experiment: Primary qHTS assay for Inhibitors of ovarian cancer metastasis using an organotypic tumor microenvironment (TME) model.; further: nearly all actives have a fitted effect of over 65% in size;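 on activity change, negative = inhibition: plate controls were DMSO wells for no effect and tomatine positive control wells for full effect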; conditions: SKOV3ip1-GFP adhesion/invasion on 3D omental model, fluorescence; series mostly up to 45.8 µM; activity change, negative = inhibition: at the top concentration
Method in brief: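 qHTS, 4-pt dose (0.36-46 umol/L); SKOV3ip1-GFP, 1,200 cells/well, no FBS; primary omental fibroblast/mesothelial co-culture 48 h pre-grown; 2 h RT + 16 h 37 C; PBS wash, 4% PFA; GFP count 488/509 nm.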

outcome, inactive:
Nc1c(C(=O)c2ccc(F)cc2)sc(Nc2ccccc2F)c1S(=O)(=O)c1ccc(Br)cc1
O=C(Nc1c(-c2ccc(F)cc2)nc2ccccn12)c1ccccc1F
COc1cccc(/C=C/c2onc(C)c2S(=O)(=O)N2CCC(C(=O)N3CCC(C)CC3)CC2)c1
CCOC(=O)C1=C(CN2CCN(c3ccccc3F)CC2)NC(=O)NC1c1ccc(Cl)cc1 (stereo unspecified)
COc1ccc(-c2cn3c(n2)sc2cc(C(=O)Nc4cccc(OC)c4)ccc23)cc1
CCOc1ccc(CCNC(=O)c2cc3c(s2)-c2ccccc2OC3)cc1OCC
COc1cc(OC)c(N(C)C(=O)Cn2ncc3c(=O)oc4ccccc4c32)cc1Cl
COCCNC(=O)c1c(NC(=O)c2cc(=O)c3cc(Cl)ccc3o2)sc2c1CCCC2
CCC(C)NC(=O)CSc1nc(-c2ccc(F)cc2)cc(C(F)(F)F)n1 (stereo unspecified)
COc1cccc(C(=O)Nc2cccc(C(=O)OCc3cc(=O)n4c5c(sc4n3)CCCC5)c2)c1
COc1ccccc1-n1c(=O)c2c3c(sc2n(Cc2ccccc2F)c1=O)CN(C(C)=O)CC3
CCOC(=O)CSc1nc2c(sc3cccc(F)c32)c(=O)n1Cc1ccc(OC)cc1
CC(C)c1cc(-c2nc(-c3ccc(Br)cc3)no2)n[nH]1
CCCN1CCN(CCNC(=O)Nc2ccccc2OCC)CC1
CCOC(=O)c1c(C)[nH]c(C)c1S(=O)(=O)NCC(=O)NCc1ccccc1Cl
COc1cc(C(CC(=O)Nc2cc(C)ccn2)N2Cc3ccccc3C2=O)cc(OC)c1OC (stereo unspecified)
CCOc1ccccc1C(=O)Nc1ccc(S(=O)(=O)Nc2ncccn2)cc1
COc1ccc(Nc2ncnc3onc(C)c23)c(OC)c1
O=C(CSC1=Nc2ccccc2N=C(c2ccc(F)cc2)C1)Nc1ccc(Cl)cc1
CC(=O)Nc1ccc(NC(=O)c2cc(-c3cccs3)on2)cc1
CC1(C(=O)NC2CCCCC2)Cc2ccccc2C(=O)N1Cc1ccc(F)cc1 (stereo unspecified)
Cc1cccc(N2CCN(C(=O)Cn3ncc4c([nH]c5ccccc54)c3=O)CC2C)c1 (stereo unspecified)
CCOc1ccc(CNC(=O)c2cnc3sc(N(CC)CC)nn3c2=O)cc1
CCOC(=O)CCCN1C(=O)CCn2nc(-c3cn(C)c4ccccc34)cc21
CCCCC(=O)Nc1c(C(=O)N2CCN(c3ccccc3)CC2)oc2ccccc12
CCOc1ccc(CNC(=O)c2cccn2-c2nnc(N3CCCCC3)s2)cc1OC

Activity change, negative = inhibition, inactive:
Cc1cccc(CNC(=O)c2ccc(NC(=O)N3CC(C)Sc4ccccc43)cc2)c1 (stereo unspecified) 3.55%
CCOC(=O)c1cccc(NC(=O)c2ccc3nc(Cc4ccccc4)oc3c2)c1 -0.731%
COc1ccccc1CNC(=O)c1ccc2c(c1)CCN2S(=O)(=O)c1ccccc1 -8.23%
O=C(/C=C\c1ccc2c(c1)OCO2)NC1CC(=O)N(c2cccc(F)c2)C1 (stereo unspecified) 5.32%
COc1ccccc1N1CCN(C(=O)CSc2n[nH]c(-c3ccccc3)n2)CC1 -15.2%
Cc1cc2ccccc2n1-c1ccc(C(=O)N2CCC(C(=O)NCc3ccccc3Cl)CC2)s1 3.81%
Cc1ccc(-n2c3c(c(=O)[nH]c2=O)C(NC(=O)c2ccccc2C)(C(F)(F)F)C(=O)N3)cc1 (stereo unspecified) -4.81%
COC(=O)c1scc(-c2ccc(C)cc2)c1S(=O)(=O)Nc1ccc(N(C)C)cc1 -15.6%
Cc1ccccc1NCc1cccn1-c1nnc(N2CCC(C)CC2)s1 22.1%
CC(CNC(=O)Cc1ccc(NC(=O)N2CCSc3ncccc32)cc1)c1ccccc1 (stereo unspecified) 1.1%
Cn1c(=O)oc2cc(S(=O)(=O)Nc3ccccc3O)ccc21 -5.2%
Cc1c(Cl)cccc1-n1nc(C)c2c(C(=O)NCc3ccccc3)cc(C3CC3)nc21 8.98%
Cc1nc2c(-c3ccccc3)c(C)nn2c(C)c1CCC(=O)NCc1ccc(F)cc1 -6.72%
CCOc1ccc(NC(=O)CC2C(=O)N(c3ccccc3)C(=O)N2Cc2ccc3c(c2)OCO3)cc1 (stereo unspecified) 4.39%
Cc1ccc(CNC(=O)C2CCN(S(=O)(=O)c3cc(-c4noc(C)n4)ccc3C)CC2)cc1 0.817%
O=C(NCc1ccc(Cl)cc1)C1CCN(S(=O)(=O)Cc2ccccc2)CC1 -23.7%
COc1ccc(-c2cc(C(F)(F)F)nc(SCC(=O)N3CCC(C)CC3)n2)cc1 3.22%
Cc1ccc(-c2cc(NC(=O)COc3ccc(Cl)cc3C)on2)cc1 6.36%
Cc1ccc(CN2C(=O)N(c3ccccc3)C(=O)C2CC(=O)Nc2ccccc2)cc1 (stereo unspecified) 3.76%
COC(=O)c1ccccc1NC(=O)N1CCC(n2c(C)nc3cccnc32)CC1 -4.61%
Cc1ccc(NC(=O)N2CCN(C)c3ncccc32)cc1C -11.4%
O=C(CN1C(=O)COc2ccc(S(=O)(=O)N3CCCCCC3)cc21)NCCc1ccccc1 2.92%
COC(=O)c1ccccc1NC(=O)c1cnc2sc(N3CCOCC3)nn2c1=O 8.79%
Cc1ccc(CNC(=O)c2cc(=O)c3cc(C)cc(C)c3o2)cc1 0.52%
CC(=O)N1CCN(c2csc3ccc(Br)cc3c2=O)CC1 1.06%
CCc1cccc(C)c1NC(=O)Cn1cc2c(n1)CCCCC2 -5%
COc1ccccc1NC(=O)Cn1nnc(C(=O)Nc2ccccc2Br)c1N -5.72%
CCc1nn(CCCC(=O)NCc2cc(Br)ccc2OC)c(=O)c2cc3occc3n12 -9.47%
Cc1cccc(NS(=O)(=O)c2ccc3c(c2)OCC(C(=O)N2CCCC2)O3)c1C (stereo unspecified) 13.7%
CCOc1ccc(NC(=O)c2cc3cc4cc(OC)ccc4nc3s2)cc1 -1.98%
O=C(NCCS(=O)(=O)N1CCN(c2ccc(F)cc2)CC1)C1CC(=O)N(c2ccccc2)C1 (stereo unspecified) -5.37%
Cc1ccc(S(=O)(=O)c2cn(CC(=O)Nc3ccc4c(c3)OCO4)c3ccccc3c2=O)cc1C 6.19%
CC(C)(C)C(=O)Nc1ccc2nc(SCC(=O)N3CCc4ccccc43)sc2c1 -2.66%
Cc1ccc(-c2nnc(Nc3ccc(O)cc3)c3ccccc23)cc1S(=O)(=O)N1CCCCC1 -5.53%
O=c1c2cccnc2n(Cc2cccc(F)c2)c(=O)n1Cc1ccccc1Cl 2.55%
COc1ccc2cc(CNc3ccc(C)cc3)c(=O)n(CC(=O)Nc3cccc(C(F)(F)F)c3)c2c1 -5.53%
CCN1CCN(c2ncc3c(n2)CCN(Cc2ccc(OC)c(OC)c2)C3)CC1 -8.28%
C[C@H]1C[C@H]2[C@@H]3CCC4=CC(=O)C=C[C@]4(C)[C@@H]3C(=O)C[C@]2(C)[C@@]1(O)C(=O)CO -1.35%
COc1ccc2[nH]c(=O)c(CN(C(=O)c3cccc(Cl)c3)c3cccc(C)c3)cc2c1 0.475%
CCCN(Cc1cccs1)C(=O)Nc1ccc(Br)cc1F -5.93%
CN(Cc1ccccc1)C(=O)c1cc(-c2cccc(Cl)c2)on1 -0.789%
CCN1C(=O)c2ccccc2S(=O)c2ccc(C(=O)N3CCN(c4ccccc4OC)CC3)cc21 (stereo unspecified) 35%
COc1cccc(CNC(=O)CCCCCn2c(=O)[nH]c3cc(OC)c(OC)cc3c2=O)c1 1.77%
Cc1cccc(Cc2c(C)nc3nc(SCc4ccccc4F)nn3c2C)c1 5.8%
COc1ccccc1CNC(=O)CCCn1c(=O)c2ccccc2n(Cc2ccccc2C#N)c1=O 43.2%
COc1ccc2c(c1)c1c(c(=O)n(-c3cccc(C)c3)c(=O)n1CC(=O)NCC1CCCO1)n2C (stereo unspecified) -15%
COc1ccccc1NC(=O)CSc1oc(-c2ccccc2)nc1S(=O)(=O)c1ccccc1 0.255%
Cc1cc2c(n1-c1ccc(C(=O)NCc3ccc(OC(C)C)cc3)cc1)CCCC2 -21.5%
COc1cc(-c2oc3ccc(C)cc3c(=O)c2O)cc(OC)c1OC 4.04%
Cc1ccc(Sc2c(C)nn(C(=O)c3ccc(Br)cc3)c2C)cc1 1.57%
CCc1cccc(C)c1NC(=O)c1ccc2c(c1)CCN2S(=O)(=O)CC -0.432%
COc1ccc(OC)c(NC(=O)Cn2c(=O)n(Cc3nc(C)no3)c(=O)c3ccccc32)c1 11.6%
COc1ccc(Cl)cc1NC(=O)NCCc1c(C)nn(C)c1C -3.02%
COc1ccc(N2CCN(C(=O)C(C)n3c(=O)cc(C(F)(F)F)c4c(C)nn(C)c43)CC2)cc1 (stereo unspecified) -10.2%
COc1ccccc1CNS(=O)(=O)c1ccc2c(c1)CC(C)N2C(=O)C1CCC1 (stereo unspecified) -3.63%
Cc1ccc(S(=O)(=O)c2nc(-c3ccco3)oc2SCc2ccc(F)cc2)cc1 4.03%
COc1ccc(-c2cc(C)no2)cc1S(=O)(=O)NC1CCC(C)CC1 (stereo unspecified) 5.43%
Cn1cnc(S(=O)(=O)N2CCCC(C(=O)NCc3ccccc3)C2)c1 (stereo unspecified) -1.18%
CCOc1ccc(NC(=O)c2cc(C)nc3c2c(C)nn3-c2cccc(F)c2)cc1 -2.87%
Cc1ccc(NC(=O)C2CCCN2S(=O)(=O)c2ccc3c(c2)C(C)(C)C(=O)N3C)cc1 (stereo unspecified) -6.45%
Nc1nc(F)nc2c1ncn2[C@@H]1O[C@H](CO)[C@@H](O)[C@@H]1O -7.23%
COc1cccc(NC(=O)c2c(N3CCCC3=O)c3cc(C)ccc3n2C)c1 -17.2%
O=C(NCCS(=O)(=O)N1CCN(c2ccccc2F)CC1)C1CC(=O)N(c2ccccc2)C1 (stereo unspecified) -9.67%
Cc1c(OCC(F)(F)F)ccnc1CS(=O)c1nc2ccccc2[nH]1 (stereo unspecified) 0.249%
COc1ccc(S(=O)(=O)NCCc2sc3nc(-c4ccc(C)cc4)nn3c2C)cc1F -5.94%
O=C(CSc1nc2ccccc2nc1Cc1ccccc1)Nc1ccccc1C(F)(F)F 7.96%
CCCCN(Cc1ccccc1)S(=O)(=O)c1cc(Br)cc2c1N(C(C)=O)CC2 0.781%
CCOc1ccc(CCNC(=O)c2cccc(-n3c(C)nc4cccnc43)c2C)cc1 9.96%
CCc1ccccc1NC(=O)C(CC)Oc1ccccc1-c1nnc(-c2ccccc2)o1 (stereo unspecified) 4.43%
O=C(Nc1ccc(C(=O)OCc2cc(=O)n3nc(C4CC4)sc3n2)cc1)c1cccc(Cl)c1 5.31%
